Source: the supplement of paper PMC10126150
Sequences with one replicate were seen in a single cluster, so their values are uncertain.
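Note: ATP exposure 15 min at 22 °C before imaging.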

These sequences were tested on ATP (assay: switch fluorescence ratio, 500 uM ATP over buffer (Cy3 cluster intensity, sum of 5 cycles each) (fold (ratio)); higher = stronger signal-on switching upon ATP binding; sequences stand for … in TCGTCGGCAGCGTCAGATGTGTATAAGAGACAGTTTTTTTTTTTTTTTTTTTTTTTTT…TC). Conditions: aptamer strand: ATP DNA aptamer (quencher-CACCTGGGGGAGTATTGCGGAGGAAGG + anchor), 100 nM annealed; ATP concentration: 500 uM; one replicate.
Summary of the method: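 For every switch-domain sequence, the fluorescence ratio is the mean of per-cluster values, each being summed target-cycle Cy3 intensity over summed buffer-cycle Cy3 intensity. Clusters outside 100-1000 RFU were excluded. On a modified Illumina MiSeq flow-cell, the Cy3-labelled switching-strand clusters were annealed to 100 nM quencher-labelled ATP aptamer, imaged in selection buffer and then after 15 min with 500 uM ATP at 22 °C. Five such cycles were run, with NaOH stripping and re-annealing between them.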
In the case of GGATCATTTT, the switch fluorescence ratio is reported as 0.991. GGATCCAGCG showed a switch fluorescence ratio of 1.01. Work on GGATCCATGC yielded a switch fluorescence ratio of 1.03. GGATCCCTTC was tested, and the switch fluorescence ratio was 1.05. For GGATCCTGTA, the switch fluorescence ratio was 0.997. For GGATCGTGT, the switch fluorescence ratio was 0.988. In the case of GGATCGTTGG, the switch fluorescence ratio is reported as 0.989. Sequence GGATCGTTTG has a switch fluorescence ratio of 1. GGATCTCCAA showed a switch fluorescence ratio of 1. Work on GGATCTCGAC yielded a switch fluorescence ratio of 1.05. GGATCTTTTG showed a switch fluorescence ratio of 1.02. Sequence GGATGAGAA has a switch fluorescence ratio of 1.01. GGATGAGAAG showed a switch fluorescence ratio of 0.981. GGATGATAGG gave a switch fluorescence ratio of 1.03. With GGATGCATCT the switch fluorescence ratio was 1.02. For GGATGCGCTG, the switch fluorescence ratio was 0.967. GGATGCTCTC showed a switch fluorescence ratio of 1. GGATGGAAGT showed a switch fluorescence ratio of 1.04. GGATGGCAA gave a switch fluorescence ratio of 0.986. GGATGGGCCA showed a switch fluorescence ratio of 0.976. With GGATGGTGAC the switch fluorescence ratio was 0.961. Work on GGATGTCATC yielded a switch fluorescence ratio of 1. With GGATTCATTA the switch fluorescence ratio was 0.965. GGATTCCCGA showed a switch fluorescence ratio of 1.05. For GGATTCGTCC, the switch fluorescence ratio was 1.04. GGATTCTAA was tested, and the switch fluorescence ratio was 0.967. GGATTCTT showed a switch fluorescence ratio of 1.01. For GGATTGAAAA, the switch fluorescence ratio was 1.03. For GGATTGATAC, the switch fluorescence ratio was 1.1. For GGATTTTTAA, the switch fluorescence ratio was 0.987. GGCAATTGGC showed a switch fluorescence ratio of 0.962. In the case of GGCAATTTTG, the switch fluorescence ratio is reported as 1.03. In the case of GGCACAAATC, the switch fluorescence ratio is reported as 0.97. Work on GGCACAAGGA yielded a switch fluorescence ratio of 1. Work on GGCACGGTGG yielded a switch fluorescence ratio of 1. GGCACTACGC was tested, and the switch fluorescence ratio was 1.09. GGCACTGGGA was tested, and the switch fluorescence ratio was 0.995. For GGCACTGGTC, the switch fluorescence ratio was 1.09. GGCAGAATT was tested, and the switch fluorescence ratio was 1.01. Work on GGCAGACGTG yielded a switch fluorescence ratio of 1.05. Sequence GGCAGATCCC has a switch fluorescence ratio of 1.01. GGCAGCTCAT was tested, and the switch fluorescence ratio was 1.01. GGCAGGACCT gave a switch fluorescence ratio of 1.15. With GGCAGGGTCA the switch fluorescence ratio was 0.959. Sequence GGCAGGTGGA has a switch fluorescence ratio of 1.02. GGCAGTAACT was tested, and the switch fluorescence ratio was 1.03. GGCAGTTATT was tested, and the switch fluorescence ratio was 1.02. Sequence GGCATAAACG has a switch fluorescence ratio of 1.31. Work on GGCATAATCT yielded a switch fluorescence ratio of 1.05. Work on GGCATAATGT yielded a switch fluorescence ratio of 0.951. For GGCATAGTTA, the switch fluorescence ratio was 0.976. Sequence GGCATCGATG has a switch fluorescence ratio of 1.04. With GGCATGCA the switch fluorescence ratio was 0.986. Work on GGCATGCGTG yielded a switch fluorescence ratio of 0.968. Sequence GGCATTACAC has a switch fluorescence ratio of 1.12. With GGCATTAGAC the switch fluorescence ratio was 1.06. GGCATTTAA gave a switch fluorescence ratio of 0.994. With GGCCAAGATT the switch fluorescence ratio was 0.987. GGCCAAGCTA was tested, and the switch fluorescence ratio was 0.967. GGCCACTTGC showed a switch fluorescence ratio of 1. GGCCAGCACT showed a switch fluorescence ratio of 0.991. In the case of GGCCAGGAAC, the switch fluorescence ratio is reported as 1.02. In the case of GGCCAGGGCG, the switch fluorescence ratio is reported as 1. Sequence GGCCATAGGG has a switch fluorescence ratio of 0.997. With GGCCATGACG the switch fluorescence ratio was 0.95. With GGCCATGGAA the switch fluorescence ratio was 0.991. In the case of GGCCATTCTC, the switch fluorescence ratio is reported as 0.957. With GGCCATTTCG the switch fluorescence ratio was 0.997. Work on GGCCCAATGA yielded a switch fluorescence ratio of 1.02. Work on GGCCCACACT yielded a switch fluorescence ratio of 1.05. In the case of GGCCCCATTT, the switch fluorescence ratio is reported as 0.996. With GGCCCGTACA the switch fluorescence ratio was 1.01. GGCCCTTTAC gave a switch fluorescence ratio of 1.16. Work on GGCCCTTTTT yielded a switch fluorescence ratio of 1.06. GGCCGCAGTC was tested, and the switch fluorescence ratio was 2.15. For GGCCGCTTGG, the switch fluorescence ratio was 0.956. GGCCGGCGTA was tested, and the switch fluorescence ratio was 0.99. Work on GGCCGGGCAC yielded a switch fluorescence ratio of 0.994. In the case of GGCCGTAGCA, the switch fluorescence ratio is reported as 1.06. GGCCGTAGCC gave a switch fluorescence ratio of 0.987. Sequence GGCCGTATTC has a switch fluorescence ratio of 0.985. GGCCGTCAAA was tested, and the switch fluorescence ratio was 0.954. GGCCGTTAAG was tested, and the switch fluorescence ratio was 1.01. For GGCCTAAGAG, the switch fluorescence ratio was 1.06. With GGCCTACCTT the switch fluorescence ratio was 1.07. GGCCTCATAT showed a switch fluorescence ratio of 0.994. Work on GGCCTGGTAT yielded a switch fluorescence ratio of 1. With GGCCTGTTCG the switch fluorescence ratio was 0.984. With GGCCTTAGCG the switch fluorescence ratio was 1. In the case of GGCGAAATTT, the switch fluorescence ratio is reported as 0.988. GGCGAAGTTA showed a switch fluorescence ratio of 0.98. In the case of GGCGACATAC, the switch fluorescence ratio is reported as 1.52. GGCGACCGTC was tested, and the switch fluorescence ratio was 1.01. In the case of GGCGACGTGC, the switch fluorescence ratio is reported as 0.983. Sequence GGCGACTATC has a switch fluorescence ratio of 1.04. Work on GGCGAGCCGC yielded a switch fluorescence ratio of 0.989. With GGCGAGGATA the switch fluorescence ratio was 1.03. Work on GGCGATTTAG yielded a switch fluorescence ratio of 0.962. For GGCGCACCCC, the switch fluorescence ratio was 1. In the case of GGCGCCGGAG, the switch fluorescence ratio is reported as 1.04. Work on GGCGCGGGTC yielded a switch fluorescence ratio of 0.985. Sequence GGCGCTATTC has a switch fluorescence ratio of 1.35. In the case of GGCGCTGACG, the switch fluorescence ratio is reported as 0.977. Sequence GGCGGATGTG has a switch fluorescence ratio of 0.967. GGCGGTGGAC gave a switch fluorescence ratio of 1.02. Sequence GGCGGTTGCA has a switch fluorescence ratio of 0.993. In the case of GGCGTACATA, the switch fluorescence ratio is reported as 0.987. Work on GGCGTAGCGC yielded a switch fluorescence ratio of 1.19. GGCGTAGGGA was tested, and the switch fluorescence ratio was 1.06. In the case of GGCGTATGCA, the switch fluorescence ratio is reported as 1.04. GGCGTGCAGG gave a switch fluorescence ratio of 1.04. GGCGTTATTG showed a switch fluorescence ratio of 0.988. GGCGTTCGAG was tested, and the switch fluorescence ratio was 0.996. GGCGTTGCAG gave a switch fluorescence ratio of 0.956. GGCGTTTGAG gave a switch fluorescence ratio of 0.949. For GGCTAAACGG, the switch fluorescence ratio was 0.974. In the case of GGCTAATTT, the switch fluorescence ratio is reported as 0.989. In the case of GGCTAGAGTG, the switch fluorescence ratio is reported as 1.01. With GGCTATAATT the switch fluorescence ratio was 0.985. GGCTATATTA was tested, and the switch fluorescence ratio was 1.03. GGCTATTCA gave a switch fluorescence ratio of 1.03. For GGCTCACCGC, the switch fluorescence ratio was 1.07. GGCTCAGTT showed a switch fluorescence ratio of 1.02. GGCTCGAAAT gave a switch fluorescence ratio of 1.08. For GGCTCGTACG, the switch fluorescence ratio was 0.969. GGCTCGTTCG gave a switch fluorescence ratio of 0.978. With GGCTCTACCT the switch fluorescence ratio was 1.12. Work on GGCTCTCTTA yielded a switch fluorescence ratio of 0.988. With GGCTGCAGCG the switch fluorescence ratio was 1.02. In the case of GGCTGCTGGC, the switch fluorescence ratio is reported as 1.01. Work on GGCTGGGCGT yielded a switch fluorescence ratio of 1.02. In the case of GGCTGGTTCT, the switch fluorescence ratio is reported as 0.988. GGCTGTGTAT was tested, and the switch fluorescence ratio was 0.969. Work on GGCTTAAGTC yielded a switch fluorescence ratio of 0.969. In the case of GGCTTAGGCG, the switch fluorescence ratio is reported as 0.978. Work on GGCTTAGGTA yielded a switch fluorescence ratio of 0.987. In the case of GGCTTAGTGA, the switch fluorescence ratio is reported as 1.02. Sequence GGCTTCAGTG has a switch fluorescence ratio of 1.01. GGCTTCGCCA showed a switch fluorescence ratio of 1.12. GGCTTCGTAG showed a switch fluorescence ratio of 1.01. For GGCTTGCAGA, the switch fluorescence ratio was 0.975. For GGCTTTAGTC, the switch fluorescence ratio was 0.986. In the case of GGGAAAAAT, the switch fluorescence ratio is reported as 0.923. GGGAAAACG gave a switch fluorescence ratio of 1.03. Work on GGGAACATAG yielded a switch fluorescence ratio of 1.03. For GGGAACCTAC, the switch fluorescence ratio was 1.56. With GGGAACTGAA the switch fluorescence ratio was 1.23. GGGAAGCCCC was tested, and the switch fluorescence ratio was 1.1. In the case of GGGAAGGCCT, the switch fluorescence ratio is reported as 1.04. For GGGAATGAAG, the switch fluorescence ratio was 1.01. Work on GGGAATTCAT yielded a switch fluorescence ratio of 0.982. For GGGAATTTTG, the switch fluorescence ratio was 0.962. For GGGACACCCT, the switch fluorescence ratio was 1.14.
